# Measurements as given in PubChem BioAssay AID1745845 (National Center for Advancing Translational Sciences (NCATS), 2022).
# In all, about 360,000 compounds went through this assay and about 2,600 (0.72%) were called active. Inconclusive results, whose numbers are uncertain, are shown with a selection of clear calls. Calls follow the shape of the dose curve; as a rule, active = well fitted inhibition curve with a large enough effect; inconclusive = small, poorly fitted or top-dose-only effect; inactive = no such curve, though single readings can be large or run the other way. Potencies beside an inconclusive call are fits to weak or partial responses and may not hold up.
# Test: Primary qHTS for Inhibitors of ATXN expression; also: nearly all actives have a fitted effect of over 55% in size
# Conditions: HEK-293 ATXN2-luciferase reporter, luminescence, 24 h; series mostly up to 57 µM
# Method in brief: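 qHTS (up to 57 uM final) was run with 24 h compound exposure of reporter cells at 37 °C. Each well was multiplexed: SteadyGlo luminescence measured ATXN2-luciferase expression after a fluorogenic Gly-Phe-AFC viability readout (25 uM final).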
# Potency is read from the fitted curve at half-maximal effect; tags tell the direction and shape of the fitted curve.
row,Structure (SMILES),Potency
1,COC(=O)C1=C(C)N(CC2CC2)C(=NCc2cccc(C(F)(F)F)c2)N[C@H]1c1ccccc1,"inconclusive: 31.6 µM [inhibitor, single point]"
2,O=C(/C=C/Sc1ccccc1)c1ccccc1,"inconclusive: 39.8 µM [inhibitor, single point]"
3,O=C(NCCc1ccc(Cl)cc1)C1CCC(CNc2nc(=S)[nH]c3ccccc23)CC1 (stereo unspecified),inactive
4,CC(=O)Oc1ccc(C(=O)Nc2cc(NC(=O)c3ccc(OC(C)=O)cc3)cc(C(=O)NC(C)(C)C)c2)cc1,inactive
5,CCOC(=O)c1ccc(N2CSC3=C(C#N)C(c4cccs4)CC(=O)N3C2)cc1 (stereo unspecified),inactive
6,Fc1ccc(-c2nnc3sc(C4COc5ccccc5O4)nn23)cc1 (stereo unspecified),"inconclusive: 39.8 µM [inhibitor, single point]"
7,O=C(NCCN1CCN(C(=O)c2cccc(Br)c2)CC1)C(=O)Nc1ccc(Br)cc1,"inconclusive: 10 µM [inhibitor, partial curve, poor fit]"
8,CCN(CC)CCOc1nnc(-c2ccc(C)cc2)c2ccccc12,inactive
9,CC1=CN2C(=N)/C(=C/c3ccc([N+](=O)[O-])o3)C(=O)N=C2S1,inactive
10,S=C1NC[C@H](CC2CCCCC2)N1CC1CCCCC1,active: 31.6 µM
11,CCC(Sc1nnc(-c2ccc(C)c(Cl)c2)n1CC)C(=O)Nc1nccs1 (stereo unspecified),inactive
12,CCC(=O)NC(c1cc(Cl)c2cccnc2c1O)C1CC1 (stereo unspecified),"inconclusive: 5.01 µM [inhibitor, full curve]"
13,CC(C)CC(N)c1csc(Nc2ccccn2)n1 (stereo unspecified),"inconclusive: 31.6 µM [inhibitor, single point]"
14,O=C(O)CCc1nc(-c2ccccc2)no1,inactive
15,Cc1cnc(C(=O)OCC(=O)Nc2oc(-c3ccccc3)c(-c3ccccc3)c2C#N)cn1,"inconclusive: 6.31 µM [inhibitor, partial curve, poor fit]"
16,N=c1ccn(Cc2ccc(Cl)cc2Cl)cc1,"inconclusive: 17.8 µM [inhibitor, single point]"
17,O=C(CC12CC3CC(CC(Br)(C3)C1)C2)NC1CCCC1,inactive
18,COc1ccc(-c2sc3cc(OC)ccc3c2-c2ccc(OCCN3CCCCC3)cc2)cc1,active: 22.4 µM
19,CCCCC(=O)NC(c1ccc(Cl)cc1)c1ccc2cccnc2c1O (stereo unspecified),active: 7.94 µM
20,O=C(Nc1cc(N2CCOCC2)ncn1)c1ccc(F)cc1,"inconclusive: 0.0336 µM [inhibitor, full curve, poor fit]"
21,CCCCCCc1cc2cc(S(=O)(=O)c3ccc(Cl)cc3)c(=O)oc2cc1O,"inconclusive: 39.8 µM [inhibitor, single point]"
